This is an account of results in the RNAGym collection of RNA variant scans (doi:10.1093/nar/gkz1192).

The source gives no read counts; variants with many changes may rest on few reads.

To fix the notation:
B1: CPEB3 Ribozyme (parent)
chain: UAACAGGGGGCCACAGCAGAAGCGUUCACGUCGCAGCCCCUGUCAGAUUCUGGUGAAUCUGCGAAUUCUGCUGUAUAUCUC

In the data set the parent is B1. As to the kind of experiment: self-cleavage, relative activity (ratio to wild type); higher = more cleavage; in vitro, sequencing. In a few lines:
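Relative activity was defined as the cleaved/total read fraction for a variant divided by the same fraction for the unmutated ribozyme. CPEB3 self-cleaving ribozyme libraries were made by rounds of error-prone PCR, barcoded, and transcribed in vitro with T7 RNA polymerase for 5 hours at 37°C, and cleavage ran through transcription plus a 15 min DNase I step before EDTA. Illumina sequencing of template-switched reverse transcripts gave the reads, and DNA sequencing mapped the barcodes. Averages come from three batches, using variants with at least 5 reads.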
Consider G24A U41C U51G A64G U69C, for which the self-cleavage was 0.05.

On to A21U U31C U72A, for which the self-cleavage is 0.13.

In the case of G24A U49C U72A, the self-cleavage stood at 0.11.

Turning to U25A U43C U48A, the self-cleavage worked out at 0.06.

In the case of G22U U69A U72C, the self-cleavage is 0.15.

Turning to A21U U31A G52A G70C U76C C79U, the self-cleavage came out at 0.09.

Take U25A G52A U76C: the self-cleavage came out at 0.51.

Regarding A21G U31G A45G A56C U72A, the self-cleavage was 0.04.

C23A U41C U43C: the self-cleavage stood at 0.35.

Turning to G22U U51C C68A U74A, the self-cleavage worked out at 0.05.

Consider A21G U41C U54C A65G, for which the self-cleavage was 0.33.

Turning to G22U G36C C38U A65G U78C, the self-cleavage stood at 0.09.

For A21G U60A U74G, the self-cleavage was found to be 0.37.

Consider C23A U43C A56U, for which the self-cleavage is 0.16.

For the variant G24A A65G U72C, the self-cleavage is 0.21.

For C23A A28U U54C G70C U78C, the self-cleavage was 0.06.

A21U U51A U54C: the self-cleavage is 0.14.

As for U25A G36U U69C, the self-cleavage turned out to be 0.11.

As for G22U A35G A77G, the self-cleavage turned out to be 0.18.

For A21U U31C A47G U67C, the self-cleavage came out at 0.1.

G24A U51A U72C: the self-cleavage came out at 0.18.

With A21G U51A U72A, the self-cleavage turned out to be 0.3.

For the variant C23U U41C U69C U80C, the self-cleavage was 0.07.

Take G22A U54C U72C A77G: the self-cleavage was determined as 0.31.

For A21U U41A U43C G46U U72G, the self-cleavage came out at 0.03.

On to G24C U31A G73U U80A, for which the self-cleavage came to 0.07.

As to A21U U25C U51C, the self-cleavage is 0.14.

As to A21U G24A A47G U54C U74C, the self-cleavage was found to be 0.27.

C23A U51A U66G: the self-cleavage turned out to be 0.16.

As for C23G U48C U51A U54A C68G, the self-cleavage turned out to be 0.09.

Regarding G24A A28U U49C U54A U78C, the self-cleavage is 0.1.

On to A21G U43C U48C U51A U66C U67C U74C, for which the self-cleavage is 0.19.

Turning to A21G U43C U66C, the self-cleavage stood at 0.47.

Consider C23U U51C U54C A56G A57G C68G, for which the self-cleavage turned out to be 0.06.

For the variant A21G U51C A65G, the self-cleavage worked out at 0.28.

For G24C G52A U58C U80C, the self-cleavage is 0.2.

As to G22A U54A U67C U69G, the self-cleavage was 0.05.

Take C23U U31C A35G U51A U76A: the self-cleavage came to 0.76.

As for G24A A47U C71A U78G, the self-cleavage amounted to 0.08.

Turning to U25A C29A C79A, the self-cleavage stood at 0.21.

Consider G24C U26C A35G U78C, for which the self-cleavage turned out to be 0.06.

For the variant C23G A47U U58C, the self-cleavage turned out to be 0.1.

For the variant G24A U25C A45G G63U A77G, the self-cleavage amounted to 0.07.

On to G22A U26C U69A A75U U76C, for which the self-cleavage was determined as 0.11.

As to C23G A28G U31A U51C U74C, the self-cleavage stood at 0.19.

Regarding U25A G42U U43C A56G U58C, the self-cleavage amounted to 0.1.

For the variant U25A A57G A64G, the self-cleavage amounted to 0.62.

For the variant C23U A47G A56G, the self-cleavage is 0.16.

With A21G U48C A65G U72C, the self-cleavage amounted to 0.2.

Consider G22U U41C U54A A75G, for which the self-cleavage was 0.2.

On to A21U U41A U43C, for which the self-cleavage is 0.17.

On to A21G U74C U80A, for which the self-cleavage worked out at 1.16.

Consider C23A C32U A56U A65U U69A U72A, for which the self-cleavage came out at 0.05.

As for G22C G55C U66C, the self-cleavage was determined as 0.13.

With G24U U67A A75G, the self-cleavage amounted to 0.14.

C23U C38G C81U: the self-cleavage worked out at 0.19.

Turning to A21U G30A U31C U51A U69C, the self-cleavage came to 0.07.

Take C23G U67C U76C: the self-cleavage was 0.09.

For G24A A35G U76A, the self-cleavage came out at 0.27.

In the case of C23U A28G C39U U48C U74C, the self-cleavage turned out to be 0.08.

A21G U43C A56G A64G A65U: the self-cleavage was found to be 0.11.

For the variant C23U U41C A65G, the self-cleavage worked out at 0.23.

With C23U U41A A64U U66A, the self-cleavage amounted to 0.09.

Consider A21G U60A U69C, for which the self-cleavage came out at 0.19.

With C23G U51C A56U U69A, the self-cleavage turned out to be 0.09.

For the variant A21U U25A A35U U72G U74C, the self-cleavage came to 0.05.

On to G24A A45U U60A, for which the self-cleavage turned out to be 0.19.

As for G24A G36A U41C U43C A57G U58C, the self-cleavage amounted to 0.09.

As to U25A G36A U49C U51C A56G, the self-cleavage was determined as 0.16.

For the variant G24C U74C A75G, the self-cleavage was 0.29.

On to U25A C39A G46C U48A U58A G73U, for which the self-cleavage worked out at 0.35.

In the case of G22A G36A U49C U69A, the self-cleavage amounted to 0.

As to C23U C29U U67C G70A U78C C81U, the self-cleavage was 0.06.

For the variant A21G U60C A64G, the self-cleavage was determined as 0.32.

For A21G U41C U43C, the self-cleavage came to 0.31.

Take U25A U43A A57G U78C: the self-cleavage is 0.09.

As to A21G U51C U58C U66C U72A, the self-cleavage worked out at 0.21.

A21G U43G A65C: the self-cleavage came out at 0.19.

For A21G U54C C62U U69C U78A, the self-cleavage turned out to be 0.04.

On to G22U A35U A45C U76C U78C, for which the self-cleavage turned out to be 0.27.

With G22U U43C U69A, the self-cleavage was 0.44.

G24C U31C U41A A47U U74C: the self-cleavage was found to be 0.06.

With G22A A64G A77U, the self-cleavage worked out at 0.22.
